# Measurements taken from article PMC4336329 (PLoS ONE, 2015).
# In all, about 310,000 compounds went through this assay and about 14,000 (4.5%) showed an effect of 50% or more. Effects have a minus sign here. Some of the results follow.
# Target: human ether-à-go-go-related gene (hERG) potassium channel (human, UniProt Q12809)
# Assay: primary screen, population patch clamp on CHO cells stably expressing hERG
# 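Also: peak tail current of the secondary pulse compared with the same well before compound.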
# Chain of human ether-à-go-go-related gene (hERG) potassium channel (Q12809 whole entry, looked up): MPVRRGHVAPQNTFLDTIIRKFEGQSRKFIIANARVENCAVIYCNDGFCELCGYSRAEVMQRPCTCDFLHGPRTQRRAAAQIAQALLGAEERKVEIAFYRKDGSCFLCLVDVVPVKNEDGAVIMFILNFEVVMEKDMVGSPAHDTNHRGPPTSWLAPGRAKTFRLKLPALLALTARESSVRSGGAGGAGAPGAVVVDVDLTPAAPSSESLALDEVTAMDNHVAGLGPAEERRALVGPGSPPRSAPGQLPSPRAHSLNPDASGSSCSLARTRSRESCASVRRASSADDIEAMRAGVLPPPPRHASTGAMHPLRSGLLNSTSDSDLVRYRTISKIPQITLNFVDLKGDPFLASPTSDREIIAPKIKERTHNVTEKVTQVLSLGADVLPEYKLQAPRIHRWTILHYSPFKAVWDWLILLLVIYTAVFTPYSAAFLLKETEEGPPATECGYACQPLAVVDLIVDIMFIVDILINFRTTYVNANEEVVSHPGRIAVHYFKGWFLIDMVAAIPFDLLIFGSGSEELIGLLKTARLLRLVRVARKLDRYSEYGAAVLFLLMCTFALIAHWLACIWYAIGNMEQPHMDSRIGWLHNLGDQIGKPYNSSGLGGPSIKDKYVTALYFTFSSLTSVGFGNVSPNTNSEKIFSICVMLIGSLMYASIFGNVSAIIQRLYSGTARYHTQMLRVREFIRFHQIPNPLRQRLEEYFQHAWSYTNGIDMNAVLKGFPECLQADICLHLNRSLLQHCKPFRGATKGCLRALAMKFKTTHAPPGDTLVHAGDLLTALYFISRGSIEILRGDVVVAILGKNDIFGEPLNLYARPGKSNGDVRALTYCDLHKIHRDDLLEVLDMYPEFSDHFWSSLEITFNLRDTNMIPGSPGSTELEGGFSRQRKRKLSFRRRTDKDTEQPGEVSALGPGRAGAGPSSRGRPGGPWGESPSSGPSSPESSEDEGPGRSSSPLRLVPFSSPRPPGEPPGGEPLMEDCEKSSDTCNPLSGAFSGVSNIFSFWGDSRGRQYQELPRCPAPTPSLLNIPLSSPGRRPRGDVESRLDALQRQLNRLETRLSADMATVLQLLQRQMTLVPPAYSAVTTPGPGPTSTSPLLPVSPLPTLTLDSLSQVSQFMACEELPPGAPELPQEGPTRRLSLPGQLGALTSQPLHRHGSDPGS
row,Structure (SMILES),"hERG current change (%, negative = inhibition) at 10uM [%]"
1,Cn1c(O)c(C=NC2CCCCCC2)c(=O)[nH]c1=S,8.07
2,O=C(c1cn(-c2ccccc2)nc1-c1cccnc1)N1CCCCC1,-13.7
3,O=S(=O)(Nc1cccnc1)c1cccc(C(F)(F)F)c1,-2.26
4,Cc1ccc(NC(=O)C2CCCN(C(=O)c3ccc(Cl)cc3)C2)cc1C (centres unmarked),-19.6
5,CCc1ccc(C(C)NC(=O)c2cc(C)oc2C)cc1 (centres unmarked),-3.21
6,O=C(NNC(=S)NC(=O)c1cccs1)c1cccnc1,22.6
7,COC(=O)NC1CCC(CC2CCC(NC(=O)OC)CC2)CC1 (centres unmarked),21.3
8,CCOC(=O)C1(Cc2ccccc2)CCCN(C(=O)c2cnn(CC)c2)C1 (centres unmarked),10.1
9,O=C(NCc1ccc(F)cc1)c1cccnc1,9.37
10,COC(=O)CN1C(=O)[C@H]2[C@@H](/C=C/c3ccccc3)N3C(=O)CN(CCO)C(=O)[C@@]3(Cc3ccccc3)[C@H]2C1=O,-2.36
11,COc1cc(S(=O)(=O)n2ccc(C)n2)ccc1Cl,-3.62
12,C=CCn1c(C)cc(C2=NNC(=NC(C)(C)C)SC2)c1C,-23.9
13,COCCN(C(=O)COC(=O)/C=C/c1nc2ccccc2s1)c1c(N)n(Cc2ccccc2)c(=O)[nH]c1=O,9.55
14,COc1ccc(C(=O)CSc2nnc(CN3CCCC3)n2-c2ccc(F)cc2)c(OC)c1,-23
15,COC(=O)c1ccccc1NC(=O)CCc1ccccc1,-9.05
16,O=C(NC1CC1)c1ccc(C2SCC(=O)N2Cc2ccccc2)cc1 (centres unmarked),-11.7
17,COc1ccc(C2C(C(C)=O)=C(O)C(=O)N2CCc2c[nH]c3ccccc23)cc1 (centres unmarked),13.7
18,O=C(Nc1cccc(S(=O)(=O)N2CCCCC2)c1)c1ccco1,-12.3
19,Cn1c2ccccc2c2cc(C(=O)NNC(=O)CCl)sc21,-25.5
20,O=C(CCC(=O)N(CC(=O)NC1CCCC1)Cc1ccccc1)Nc1nccs1,13.6
21,N#Cc1c(N)nc2c(c1-c1cccs1)CCCC2,8.17
22,CCc1ccc(NC(=O)CCC(=O)c2ccccc2)cc1,8.35

row,Structure (SMILES),"hERG current change (%, negative = inhibition) at 10uM [%]"
1,c1ccc(C2CC3CC(c4ccccc4)N2O3)cc1 (centres unmarked),13.2
2,C/C(CC(=O)Nc1ccc2c(c1)OCCO2)=N\NC(=O)COc1ccc(Cl)c(C)c1,-9.98
3,O=C(NC12CC3CC(CC(C3)C1)C2)N(Cc1ccccc1)Cc1ccncc1,-49.7
4,CC(=O)c1cccc(NC(=O)CC(C)n2ccnc2)c1 (centres unmarked),19.2
5,O=C1CCCN1c1ccc(S(=O)(=O)NCCOc2ccccc2)cc1,3.7
6,CCOC(=O)c1ccc(NC(=O)c2ccc(CN3CCOCC3)cc2)cc1,1.26
7,O=C(CSc1n[nH]c(-c2ccccc2)n1)Nc1ccc(Br)cn1,5.45
8,COC(=O)c1ccc(CSc2nnc3sc4ccccc4n23)o1,-7.51
9,Cn1nc(C(=O)Nc2ccc(S(=O)(=O)N3CCCCC3)cc2)c2ccccc2c1=O,2.33
10,Cl.NCCCCCC(=O)N/N=C/c1ccc2nccnc2c1,13.6
11,N#CCCN(Cc1cccnc1)C(=S)NCc1ccco1,30.7
12,O=C(c1cc(-c2ccccc2)nn1-c1ccccc1)N1CCN(S(=O)(=O)c2c(F)cccc2F)CC1,-32.1
13,O=C(CSc1n[nH]c(-c2cccnc2)n1)Nc1ccc(Cl)cc1,3.82
14,CCc1ccc(NC(=O)C(C)OC(=O)c2cccc(S(=O)(=O)N3CCc4ccccc4C3)c2)cc1 (centres unmarked),-6.6
15,COc1cccc2cc(C(=O)NCc3ccccc3)c(=N)oc12,-1.51
16,Cc1nnc(SCc2ccc(Cl)cc2)n1CC1CCCO1 (centres unmarked),-3.26
17,CC1CCCN(c2oc(-c3cccc4ccccc34)nc2C#N)C1 (centres unmarked),8.15
18,CC(C)c1ccc(OCC(=O)N2CCCCCC2)c(Br)c1,-20.7
19,COc1cc(NC(=O)COC(=O)CNC(=O)c2ccc(Cl)cc2)c(C)cc1[N+](=O)[O-],-14.1
20,Cc1nnc(SCC(=O)Nc2sc3c(c2C#N)CCCCC3)n1N,-2.18
21,O=C(NC12CC3CC(CC(C3)C1)C2)c1cccc(OC(F)F)c1,-55.2
22,COCc1cc(C)nc(SCC(=O)Nc2ccc(N3CCOCC3)cc2)c1C#N,3.04
